# Source: PubChem BioAssay AID1508624 (National Center for Advancing Translational Sciences (NCATS), 2021)
# Out of some 48,000 compounds screened, about 120 (0.25%) were called active. Inconclusive results (about 4%) are left out. Calls follow the shape of the dose curve; as a rule, active = well fitted activation curve with a large enough effect; inconclusive = small, poorly fitted or top-dose-only effect, or another doubt; inactive = no such curve, though single readings can be large or run the other way. This is one part of the list.
# Experiment: Primary qHTS for Identification of Small Molecule Activators of Huntingtin-Antisense Promoter Activity; also: nearly all actives have a fitted effect of over 55% in size
# Settings: HEK293 HTT-AS promoter firefly luciferase reporter, 24 h; series mostly up to 57.5 µM; activity change, positive = activation: at the top concentration
# In short: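 Quantitative HTS used concentration series of up to 57.5 uM final on HEK293 luciferase reporter cells, 24 h at 37 degrees C. Readout was Dual-Glo firefly luminescence.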
row,Structure (SMILES),"activity change, positive = activation"
1,CC(=O)c1cc(-c2ccccc2)n(CCC(=O)Nc2ccc(C(C)C)cc2)c1C,inactive: -33.7%
2,Cc1ccc(-n2ncc(C(=O)N3CCN(Cc4ccccc4)CC3)c2C2CCN(C(=O)OC(C)(C)C)CC2)cc1,inactive: -37.2%
3,COc1ccc(NC(=O)Cn2cnc3ccc(S(=O)(=O)N4CCC(C)CC4)cc3c2=O)cc1Cl,inactive: -17.7%
4,CC(C)(C)OC(=O)N1CCC(c2c(C(=O)NCCN3CCCC3)cnn2-c2ccc(Cl)cc2)CC1,inactive: -13.2%
5,Cc1ccc(NC(=O)/C=C/c2ccc(Cl)cc2)c(Br)c1,inactive: -6.46%
6,COc1cc(C2CC(=O)c3c([nH]c(C(=O)OCc4ccc(C)cc4)c3C)C2)cc(OC)c1OC (stereo unspecified),inactive: -48%
7,Cc1cccc(C(c2sc3nc(-c4ccco4)nn3c2O)N2CCN(Cc3ccccc3)CC2)c1 (stereo unspecified),inactive: -10.3%
8,CCOC(=O)c1ccccc1NC(=O)Cn1c(=O)n(CCC(=O)N2CCc3ccccc3C2)c(=O)c2ccccc21,inactive: -27.1%
9,COc1ccccc1-c1nnc(C2CCN(C(=O)c3cccc(Cl)c3)CC2)o1,inactive: -8.7%
10,COc1cc(NC(=O)c2cc(Cl)ccc2Cl)ccc1NC(=O)c1cc2ccccc2o1,inactive: -21.6%
11,CN(C)c1ccc(CNC(=O)c2cnc3sc(N4CCCC4)nn3c2=O)cc1,inactive: -10.4%
12,COCCCNC(=O)c1[nH]c2ccccc2c1Sc1ccc(C)cc1,inactive: 0.181%
13,Cc1ccccc1NC(=O)Cn1c(=O)n(CCCCCC(=O)NCc2ccccc2Cl)c(=O)c2sccc21,inactive: -27%
14,CCS(=O)(=O)N1CCc2cc(C(=O)NCc3ccc(Cl)cc3)ccc21,inactive: -26.3%
15,CCOc1ccc(OCc2ccc(C(=O)Nc3cc(OC)c(OC)c(OC)c3)o2)cc1,inactive: 7.19%
16,CC(C)c1ccc(-c2noc(SCC(=O)N3CCN(c4ccc(F)cc4)CC3)n2)cc1,inactive: -51.4%
17,O=C(CCc1ccccc1)N(Cc1cccnc1)c1nc2c(F)cc(F)cc2s1,inactive: -41.4%
18,Cc1ccc(C)c(NC(=O)N(C)CCc2c(C)nn(C)c2C)c1,inactive: 0.458%
19,COc1ccc(CCNS(=O)(=O)c2cc(-c3cc(C)no3)ccc2OC)cc1OC,inactive: -2.6%
20,Cc1ccc(N2CC(C(=O)NCCS(=O)(=O)N3CCN(c4ccccc4)CC3)CC2=O)cc1C (stereo unspecified),inactive: 10.4%
21,Cc1ccc(C)c(Nc2nn3c(=O)c4ccc(C(=O)NCCC5=CCCCC5)cc4nc3s2)c1,inactive: -20.7%
22,CCNc1nc(N)nc(Oc2ccc(OCC(=O)OC)nn2)n1,inactive: -7.17%
23,CCN(CC)CCNc1ncnc2c1cnn2-c1cc(Cl)ccc1C,inactive: -12%

row,Structure (SMILES),"activity change, positive = activation"
1,CCOc1ccc(-c2nc(CNC(=O)NC3CCCCC3)c(C)o2)cc1,inactive: -8.29%
2,Cc1ccc(C(=O)Nc2nc3nc(C)cc(=O)n3[nH]2)cc1,inactive: -8.07%
3,COc1cccc(CNC(=O)CSc2nc(=O)[nH]c3c2CCC3)c1,inactive: -4.49%
4,CCCN(C(=O)C(=O)Nc1ccc2nc3n(c(=O)c2c1)CCCCC3)c1ccc(OCC)cc1,inactive: -18.9%
5,CCOc1ccccc1C(=O)Nc1cccc2ccc(C)nc12,inactive: -30.5%
6,CCc1nnc(NS(=O)(=O)c2ccc(N)cc2)s1,inactive: -3.3%
7,COc1ccc(CCNc2nc3ccc(Cl)cc3n3cnnc23)cc1OC,inactive: -6.78%
8,Cc1cccc2nc(-c3ccc(N(C)C)cc3)c(Nc3ccc4c(c3)OCO4)n12,inactive: 27.3%
9,O=C(NCCc1csc(-c2ccc(Cl)cc2)n1)c1ccco1,inactive: -22%
10,COc1cccc(-c2nnc3n(Cc4ccc(C)cc4)c(=O)c4ccccc4n23)c1O,inactive: -15.2%
11,CCCCN(Cc1cccs1)S(=O)(=O)c1cc(-c2cc(C)no2)ccc1C,inactive: -36.8%
12,CCN1CCN(c2csc3ccc(F)cc3c2=O)CC1,inactive: 15.1%
13,Cc1cccn2c(=O)cc(CSc3nnc(NC(=O)COc4ccc(F)cc4)s3)nc12,inactive: -2.03%
14,COc1ccc(-c2nc3scc(CCNS(=O)(=O)c4c(C)noc4C)n3n2)cc1OC,inactive: -13.6%
15,COc1cccc(CNC(=O)c2[nH]c3cc(C)ccc3c2Sc2ccccc2)c1,inactive: 14.7%
16,CCOC(=O)c1c(S(=O)(=O)NCC(=O)N2CCN(c3cccc(Cl)c3)CC2)c(C)n(C)c1C,inactive: -29.2%
17,O=C(Cc1ccccc1)N(Cc1cccnc1)c1nc2ccc(Cl)cc2s1,inactive: -13.2%
18,CCCOc1ccc(C(=O)Nc2ccc3oc(-c4ccc5ccccc5c4)nc3c2)cc1,inactive: 14.3%
19,COc1ccc(NC(=O)c2ccc3c(SCC(=O)O)c4c(nc3c2)CCCC4)cc1OC,inactive: -11.6%
20,CC(=O)c1cccc(NC(=O)CSc2nnc3ccc(-c4ccc(F)cc4)nn23)c1,inactive: 10.5%
21,O=C(NCCc1ccccc1)c1cc(-c2ccc(Br)cc2)on1,"inactive: -1.15% [at 11.5 µM, percent change from vehicle, -100% = no light]"
22,CCOC(=O)c1c(C)oc2ncnc(N3CCN(c4ccc(C)cc4C)CC3)c12,inactive: 1.11%
23,Cc1sc2ncn(CC(=O)Nc3ccc(F)cc3Cl)c(=O)c2c1S(=O)(=O)N1CCN(c2ncccn2)CC1,inactive: -10%
